Experimental data published in patent publication US7592316B2, “Peptides as NS3-serine protease inhibitors of hepatitis C virus” (Schering Corporation, priority 2000, dated 2009).

Target: HCV NS3/NS4A protease (strain 1a) (Hepatitis C virus genotype 1a, UniProt P27958)
Experiment: biochemical
Conditions: Table 5; HCV NS3/NS4A protease, spectrophotometric assay, 30° C., pH 6.5; read-out: Ki* Range

Q: Which Ki does the source give for CCCC(NC(=O)[C@@H]1CC(C)(C)CN1C(=O)[C@@H](NC(=O)OC(C)(C)C)C(C)(C)C)C(=O)C(N)=O (some centres unmarked) here?
A: > 1000 nM

Q: With CCCC(NC(=O)[C@@H]1C2CCC(C2)N1C(=O)[C@@H](NC(=O)OC(C)(C)C)C(C)(C)C)C(=O)C(N)=O (some centres unmarked) as the compound, how does the Ki read?
A: > 1000 nM

Q: CC(C)(C)OC(=O)N[C@H](C(=O)N1C[C@H]2[C@@H]([C@H]1C(=O)NC1(C(=O)C(N)=O)CC1)C2(C)C)C(C)(C)C was tested. Which Ki did it give?
A: 101 to 1000 nM

Q: How did the Ki turn out when CC(C)(C)OC(=O)N[C@H](C(=O)N1C[C@H]2[C@@H]([C@H]1C(=O)NC(CC1CC1)C(=O)C(N)=O)C2(C)C)C(C)(C)C (some centres unmarked) was run?
A: 1 to 100 nM

Q: CCCC(NC(=O)[C@@H]1[C@@H]2[C@H](CN1C(=O)[C@@H](NC(=O)OC(C)(C)C)C1CCCCC1)C2(C)C)C(=O)C(N)=O (some centres unmarked) was tested. Which Ki did it give?
A: 1 to 100 nM

Q: Which Ki does the source give for CCCC(NC(=O)[C@@H]1[C@@H]2[C@H](CN1C(=O)[C@@H](NC(=O)[C@H](CC(C)C)NS(C)(=O)=O)C1CCCCC1)C2(C)C)C(=O)C(N)=O (some centres unmarked) here?
A: 1 to 100 nM

Q: How did the Ki turn out when CCCC(NC(=O)C1C2C(CN1C(=O)[C@@H](NC(=O)C(NC(=O)OC(C)(C)C)C(c1ccccc1)c1ccccc1)C(C)(C)C)C2(C)C)C(=O)C(N)=O (some centres unmarked) was run?
A: > 1000 nM

Q: For CC(C)(C)OC(=O)N[C@H](C(=O)N1CC2C([C@H]1C(=O)NC(CC1CCC1)C(=O)C(N)=O)C2(C)C)C1CCCCC1 (some centres unmarked), which Ki is on record?
A: 1 to 100 nM

Q: CCCC(NC(=O)[C@@H]1C2C(CN1C(=O)[C@@H](NC(=O)C1Cc3ccccc3N1C(=O)OC(C)(C)C)C1CCCCC1)C2(C)C)C(=O)C(N)=O (some centres unmarked) was tested. Which Ki did it give?
A: 101 to 1000 nM

Q: With CCCC(NC(=O)[C@@H]1C2C(CN1C(=O)C(NC(=O)Cc1cccnc1)C1CCCCC1)C2(C)C)C(=O)C(N)=O (some centres unmarked) as the compound, how does the Ki read?
A: > 1000 nM

Q: For CCCC(NC(=O)[C@@H]1C2C(CN1C(=O)[C@@H](NC(=O)NC(C)(C)C)C1Cc3ccccc3C1)C2(C)C)C(=O)C(N)=O (some centres unmarked), which Ki is on record?
A: 101 to 1000 nM

Q: With CCCC(NC(=O)C1C2C(CN1C(=O)[C@@H](NC(=O)NC(C)C)C1Cc3ccccc3C1)C2(C)C)C(=O)C(N)=O (some centres unmarked) as the compound, how does the Ki read?
A: 101 to 1000 nM

Q: With CCCC(NC(=O)[C@@H]1C2C(CN1C(=O)[C@@H](NC(=O)NC13CC4CC(CC(C4)C1)C3)C1Cc3ccccc3C1)C2(C)C)C(=O)C(N)=O (some centres unmarked) as the compound, how does the Ki read?
A: 101 to 1000 nM

Q: Which Ki does the source give for CCCC(NC(=O)[C@@H]1C2C(CN1C(=O)[C@@H](NC(=O)NC1CCCCC1)C1Cc3ccccc3C1)C2(C)C)C(=O)C(N)=O (some centres unmarked) here?
A: 101 to 1000 nM

Q: With CC(C)NC(=O)N[C@H](C(=O)N1C[C@@H]2[C@H]([C@H]1C(=O)NC(CC1CC1)C(=O)C(N)=O)C2(C)C)C1Cc2ccccc2C1 (some centres unmarked) as the compound, how does the Ki read?
A: 1 to 100 nM

Q: CC1(C)[C@H]2[C@@H](C(=O)NC(CC3CC3)C(=O)C(N)=O)N(C(=O)[C@@H](NC(=O)NC3CCCCC3)C3Cc4ccccc4C3)C[C@H]21 (some centres unmarked) was tested. Which Ki did it give?
A: 1 to 100 nM

Q: Which Ki does the source give for CC(C)NC(=O)N[C@H](C(=O)N1C[C@H]2[C@@H]([C@H]1C(=O)NC(CC1CC1)C(=O)C(N)=O)C2(C)C)C1CCCCC1 (some centres unmarked) here?
A: 1 to 100 nM

Q: How did the Ki turn out when CC(C)(C)NC(=O)N[C@H](C(=O)N1C[C@H]2[C@@H]([C@H]1C(=O)NC(CC1CC1)C(=O)C(N)=O)C2(C)C)C(C)(C)C (some centres unmarked) was run?
A: 1 to 100 nM

Q: How did the Ki turn out when CC(C)(C)[C@H](NC(=O)NC1CCCCC1)C(=O)N1C[C@H]2[C@@H]([C@H]1C(=O)NC(CC1CC1)C(=O)C(N)=O)C2(C)C (some centres unmarked) was run?
A: 1 to 100 nM

Q: How did the Ki turn out when CC(C)(C)OC(=O)N[C@H](C(=O)N1CC2C([C@H]1C(=O)NC(CC1CCC1)C(=O)C(N)=O)C2(C)C)C1Cc2ccccc2C1 (some centres unmarked) was run?
A: 101 to 1000 nM

Q: For CCCC(NC(=O)C1C2C(CN1C(=O)C(NC(=O)C1Cc3ccccc3N1)C1CCCCC1)C2(C)C)C(=O)C(N)=O (centres unmarked), which Ki is on record?
A: > 1000 nM

Q: Which Ki does the source give for CCCC(NC(=O)C1C2C(CN1C(=O)C(NC(=O)Cc1cccc(C)c1)C1CCCCC1)C2(C)C)C(=O)C(N)=O (centres unmarked) here?
A: 101 to 1000 nM

Q: For CCCC(NC(=O)C1C2C(CN1C(=O)C(NC(=O)NC(C)c1ccccc1)C1CCCCC1)C2(C)C)C(=O)C(N)=O (centres unmarked), which Ki is on record?
A: 101 to 1000 nM

Q: CC(C)(C)NC(=O)N[C@H](C(=O)N1C[C@@H]2[C@H]([C@H]1C(=O)NC(CC1CC1)C(=O)C(N)=O)C2(C)C)C1Cc2ccccc2C1 (some centres unmarked) was tested. Which Ki did it give?
A: 1 to 100 nM

Q: Which Ki does the source give for CCC(C)NC(=O)N[C@H](C(=O)N1C[C@@H]2[C@H]([C@H]1C(=O)NC(CC1CC1)C(=O)C(N)=O)C2(C)C)C1Cc2ccccc2C1 (some centres unmarked) here?
A: 1 to 100 nM

Q: CC1(C)[C@H]2[C@@H](C(=O)NC(CC3CC3)C(=O)C(N)=O)N(C(=O)[C@@H](NC(=O)NC34CC5CC(CC(C5)C3)C4)C3Cc4ccccc4C3)C[C@H]21 (some centres unmarked) was tested. Which Ki did it give?
A: 1 to 100 nM

Q: CCCC(NC(=O)C1C2C(CN1C(=O)C(NC(=O)Cc1cn(C)cn1)C1CCCCC1)C2(C)C)C(=O)C(N)=O (centres unmarked) was tested. Which Ki did it give?
A: > 1000 nM

Q: For CC(C)(C)OC(=O)N[C@H](C(=O)N1C[C@@H]2[C@H]([C@H]1C(=O)NC(CC1CC1)C(=O)C(N)=O)C2(Cl)Cl)C1CCCCC1 (some centres unmarked), which Ki is on record?
A: 1 to 100 nM

Q: With CCCC(NC(=O)C1C2C(CN1C(=O)C(NC(=O)N1CCOCC1)C1CCCCC1)C2(C)C)C(=O)C(N)=O (centres unmarked) as the compound, how does the Ki read?
A: > 1000 nM

Q: CCCC(NC(=O)C1C2C(CN1C(=O)C(NC(=O)OC(C)C(C)(C)C)C1CCCCC1)C2(C)C)C(=O)C(N)=O (centres unmarked) was tested. Which Ki did it give?
A: 101 to 1000 nM

Q: For CCCC(NC(=O)[C@@H]1[C@H]2[C@@H](CN1C(=O)[C@@H](NC(=O)OC(C)(C)C)C1CCCCC1)C2(Cl)Cl)C(=O)C(N)=O (some centres unmarked), which Ki is on record?
A: 1 to 100 nM

Q: Which Ki does the source give for CC(C)(C)OC(=O)N[C@H](C(=O)N1C[C@@H]2[C@H]([C@H]1C(=O)NC(CC1CC1)C(=O)C(N)=O)C2(Br)Br)C1CCCCC1 (some centres unmarked) here?
A: 1 to 100 nM
